Results from US20050203135A1, “Antagonists for treatment of CD/11CD18 adhesion receptor mediated disorders” (Genentech, Inc., priority 1998, published 2005).
Read-outs that look alike come from different tables or passages of the source.

How the values were obtained:
[1] = molecular target: T1, CD11a/CD18-ICAM-1 interaction (recombinant human LFA-1 / human 5 domain ICAM-Ig) (Homo sapiens, UniProt P05107+P20701); assay: Forward format LFA-1:ICAM-1 assay (PPFF), protein/protein receptor binding; parameters: containing the full-length cDNAs for the aL (CD11a) and b2 (CD18) subunits; made in house; conditions: forward format of LFA/ICAM assay
Source text: Forward Format LFA-1:ICAM-1 Assay (PPFF):

[2] = molecular target: T1, CD11a/CD18-ICAM-1 interaction (recombinant human LFA-1 / human 5 domain ICAM-Ig); conditions: PLM2(μM)
[3] = PLM2 antibody capture format of LFA/ICAM assay

Row | Compound | IC50 [1] [nM] | IC50 [2, 3] [µM] | IC50 [2] [µM]
1 | C[C@H](NC(=O)c1ccc(NC(=O)Cc2cccc(O)c2)cc1Cl)C(=O)O [Example 255] | 42 |  | 
2 | C[C@@H](O)[C@H](NC(=O)c1ccc(NC(=O)Cc2cccc(O)c2)cc1Cl)C(=O)O [Example 256] | 76 |  | 
3 | O=C(NCc1cc(F)c(C(=O)N[C@@H](Cc2c[nH]c3ccccc23)C(=O)O)c(F)c1)c1cccc(O)c1 [Example 283] | 92 |  | 
4 | Cc1cc(CNC(=O)c2cccc(O)c2)cc(C)c1C(=O)N[C@@H](C)C(=O)O [Example 284] | 93 | 0.079 | 
5 | Cc1cc(CNC(=O)c2cccc(O)c2)cc(C)c1C(=O)N[C@@H](CC(N)=O)C(=O)O [Example 285] | 64 |  | 
6 | C[C@H](NC(=O)c1ccc(C(=O)NCc2cccc(F)c2)cc1Br)C(=O)O [Example 310] | 82 |  | 
7 | C[C@H](NC(=O)c1ccc(C(=O)NCc2cccc(O)c2)cc1Cl)C(=O)O [Example 340] | 14 | 0.006 | 
8 | C[C@@H](O)[C@H](NC(=O)c1ccc(C(=O)NCc2cccc(O)c2)cc1Cl)C(=O)O [Example 341] | 31 |  | 
9 | O=C(NCc1cccc(O)c1)c1ccc(C(=O)N[C@@H](Cc2c[nH]c3ccccc23)C(=O)O)c(Cl)c1 [Example 342] | 57 | 0.004 | 
10 | O=C(NCc1cccc(O)c1)c1ccc(C(=O)N[C@@H](COCc2ccccc2)C(=O)O)c(Cl)c1 [Example 344] | 183 | 0.053 | 
11 | NC(=O)C[C@H](NC(=O)c1ccc(C(=O)NCc2cccc(O)c2)cc1Cl)C(=O)O [Example 345] | 19 | 0.004 | 
12 | NCCCC[C@H](NC(=O)c1ccc(C(=O)NCc2cccc(O)c2)cc1Cl)C(=O)O [Example 346] | 71 |  | 
13 | O=C(NCc1cccc(O)c1)c1ccc(C(=O)N[C@@H](Cc2c[nH]cn2)C(=O)O)c(Cl)c1 [Example 347] | 44 | 0.004 | 
14 | CC(=O)NCCCC[C@H](NC(=O)c1ccc(C(=O)NCc2cccc(O)c2)cc1Cl)C(=O)O [Example 348] | 90 | 0.023 | 
15 | NC(=O)CC[C@H](NC(=O)c1ccc(C(=O)NCc2cccc(O)c2)cc1Cl)C(=O)O [Example 349] | 42 |  | 
16 | C=CCOC(=O)NC[C@H](NC(=O)c1ccc(C(=O)NCc2cccc(O)c2)cc1Cl)C(=O)O [Example 350] | 27 | 0.005 | 
17 | C=CCOC(=O)NCC[C@H](NC(=O)c1ccc(C(=O)NCc2cccc(O)c2)cc1Cl)C(=O)O [Example 351] | 67 | 0.032 | 
18 | O=C(NCc1cccc(Cl)c1)c1ccc(C(=O)N[C@@H](Cc2c[nH]cn2)C(=O)O)c(Cl)c1 [Example 356] | 68 |  | 
19 | NC(=O)C[C@H](NC(=O)c1ccc(C(=O)NCc2cccc(Cl)c2)cc1Cl)C(=O)O [Example 357] | 57 | 0.023 | 
20 | O=C(NCc1cccc(O)c1)Nc1ccc(C(=O)N[C@@H](Cc2c[nH]c3ccccc23)C(=O)O)c(Cl)c1 [Example 358] | 230 | 0.032 | 
21 | CC(NC(=O)c1ccc(C(=O)N[C@@H](CC(N)=O)C(=O)O)c(Cl)c1)c1cccc(O)c1 (stereo partly shown) [Example 363] | 14 | 0.01 | 

Row | Compound | IC50 [1] [nM] | IC50 [2, 3] [µM] | IC50 [2] [µM]
22 | CC(NC(=O)c1ccc(C(=O)N[C@@H](Cc2c[nH]c3ccccc23)C(=O)O)c(Cl)c1)c1cccc(O)c1 (stereo partly shown) [Example 364] | 87 | 0.035 | 
23 | CCC(NC(=O)c1ccc(C(=O)N[C@@H](CC(N)=O)C(=O)O)c(Cl)c1)c1cccc(O)c1 (stereo partly shown) [Example 365] |  | 0.024 | 
24 | CCC(NC(=O)c1ccc(C(=O)N[C@@H](Cc2c[nH]c3ccccc23)C(=O)O)c(Cl)c1)c1cccc(O)c1 (stereo partly shown) [Example 366] |  |  | 0.062
25 | CCCC(NC(=O)c1ccc(C(=O)N[C@@H](CC(N)=O)C(=O)O)c(Cl)c1)c1cccc(O)c1 (stereo partly shown) [Example 367] |  | 0.02 | 
26 | CCCC(NC(=O)c1ccc(C(=O)N[C@@H](Cc2c[nH]c3ccccc23)C(=O)O)c(Cl)c1)c1cccc(O)c1 (stereo partly shown) [Example 368] |  | 0.043 | 
27 | NS(=O)(=O)C[C@H](NC(=O)c1ccc(C(=O)NCc2cccc(O)c2)cc1Cl)C(=O)O [Example 369] |  | 0.019 | 
28 | CC(NC(=O)c1ccccc1)c1ccc(C(=O)N[C@@H](CC(N)=O)C(=O)O)c(Cl)c1 (stereo partly shown) [Example 371] | 55 | 0.037 | 
29 | CC(NC(=O)c1ccccc1)c1ccc(C(=O)NC(CC(N)=O)C(=O)O)c(Cl)c1 (stereo not shown) [Example 375] |  | 0.04 | 
30 | O=C(NCc1cccc(O)c1)c1ccc(C(=O)N[C@@H](Cc2c[nH]c3ccccc23)C(=O)O)c([N+](=O)[O-])c1 [Example 378] |  | 0.007 | 
31 | NC(=O)C[C@H](NC(=O)c1ccc(C(=O)NCc2cccc(O)c2)cc1[N+](=O)[O-])C(=O)O [Example 379] |  | 0.01 | 
32 | O=C(NCc1cccc(O)c1)c1ccc(C(=O)NC(Cc2c[nH]c3ccccc23)C(=O)O)c2sccc12 (stereo not shown) [Example 380] |  | 0.096 | 
33 | NC(=O)CC(NC(=O)c1ccc(C(=O)NCc2cccc(O)c2)c2ccsc12)C(=O)O (stereo not shown) [Example 381] |  | 0.035 | 
34 | NCCCCC(NC(=O)c1ccc(C(=O)NCc2cccc(O)c2)c2ccsc12)C(=O)O (stereo not shown) [Example 383] |  | 0.06 | 
35 | NC(=O)C[C@H](NC(=O)c1ccc(OCC(O)c2cccc(O)c2)cc1Cl)C(=O)O (stereo partly shown) [Example 384] | 46 | 0.018 | 
36 | C[C@H](NC(=O)c1ccc(OCC(O)c2cccc(O)c2)cc1Cl)C(=O)O (stereo partly shown) [Example 385] | 70 | 0.048 | 
37 | C[C@H](NC(=O)c1ccc(C(O)CCc2cccc(O)c2)cc1Cl)C(=O)O (stereo partly shown) [Example 386] | 30 |  | 
38 | C[C@H](NC(=O)c1ccc(C(=O)CCc2cccc(O)c2)cc1Cl)C(=O)O [Example 387] | 98 | 0.043 | 
39 | C[C@H](NC(=O)c1ccc(OCCOc2cccc(O)c2)cc1Cl)C(=O)O [Example 388] | 50 |  | 
40 | NC(=O)C[C@H](NC(=O)c1c(Cl)cc(OCC(O)c2cccc(O)c2)cc1Cl)C(=O)O (stereo partly shown) [Example 389] | 54 | 0.01 | 
41 | NC(=O)C[C@H](NC(=O)c1c(Cl)cc(OCCCOc2cccc(O)c2)cc1Cl)C(=O)O [Example 390] |  | 0.079 | 
42 | NC(=O)C[C@H](NC(=O)c1c(Cl)cc(OCCOc2cccc(O)c2)cc1Cl)C(=O)O [Example 391] |  | 0.007 | 

Row | Compound | IC50 [1] [nM] | IC50 [2, 3] [µM] | IC50 [2] [µM]
43 | C[C@H](NC(=O)c1c(Cl)cc(OCCOc2cccc(O)c2)cc1Cl)C(=O)O [Example 392] |  | 0.025 | 
44 | NC(=O)C[C@H](NC(=O)c1c(Cl)cc(CCC(O)c2cccc(O)c2)cc1Cl)C(=O)O (stereo partly shown) [Example 393] |  | 0.003 | 
45 | Cc1cc(C(O)CCc2cccc(O)c2)cc(C)c1C(=O)N[C@@H](CC(N)=O)C(=O)O (stereo partly shown) [Example 395] |  | 0.006 | 
46 | CC(CCc1cc(Cl)c(C(=O)N[C@@H](CC(N)=O)C(=O)O)c(Cl)c1)c1cccc(O)c1 (stereo partly shown) [Example 396] |  | 0.062 | 
47 | NC(=O)C[C@H](NC(=O)c1c(Cl)cc(C(O)CCc2cccc(O)c2)cc1Cl)C(=O)O (stereo partly shown) [Example 397] |  | 0.005 | 
48 | COC(CCc1cccc(O)c1)c1cc(Cl)c(C(=O)N[C@@H](CC(N)=O)C(=O)O)c(Cl)c1 (stereo partly shown) [Example 398] |  | 0.015 | 
49 | CCCOC(=O)NC[C@H](NC(=O)c1c(Cl)cc(C(O)CCc2cccc(O)c2)cc1Cl)C(=O)O (stereo partly shown) [Example 399] |  | 0.002 | 
50 | NCCCC[C@H](NC(=O)c1c(Cl)cc(C(O)CCc2cccc(O)c2)cc1Cl)C(=O)O (stereo partly shown) [Example 400] |  | 0.007 | 
51 | C=CCOC(=O)NC[C@H](NC(=O)c1c(Cl)cc(CCC(O)c2cccc(O)c2)cc1Cl)C(=O)O (stereo partly shown) [Example 401] |  | 0.002 | 
52 | COC(CCc1cc(Cl)c(C(=O)N[C@@H](CC(N)=O)C(=O)O)c(Cl)c1)c1cccc(O)c1 (stereo partly shown) [Example 402] |  | 0.004 | 
53 | C=CCOC(=O)NC[C@H](NC(=O)c1c(Cl)cc(CCC(O)c2cccc(Cl)c2)cc1Cl)C(=O)O (stereo partly shown) [Example 403] |  | 0.009 | 
54 | O=C(NC[C@H](NC(=O)c1c(Cl)cc(CCC(O)c2cccc(Cl)c2)cc1Cl)C(=O)O)c1cccs1 (stereo partly shown) [Example 404] |  | 0.002 | 
55 | NCCCC[C@H](NC(=O)c1c(Cl)cc(CCC(O)c2cccc(Cl)c2)cc1Cl)C(=O)O (stereo partly shown) [Example 406] |  | 0.022 | 
56 | C=CCNC(=O)C[C@H](NC(=O)c1ccc(C(=O)NCc2cccc(O)c2)cc1Cl)C(=O)O [Example 427] |  | 0.044 | 
57 | O=C(C[C@H](NC(=O)c1ccc(C(=O)NCc2cccc(O)c2)cc1Cl)C(=O)O)Nc1ccccc1 [Example 436] |  | 0.011 | 
58 | CC(C)CCNC(=O)CC[C@H](NC(=O)c1ccc(C(=O)NCc2cccc(O)c2)cc1Cl)C(=O)O [Example 437] | 83 | 0.034 | 
59 | O=C(CC[C@H](NC(=O)c1ccc(C(=O)NCc2cccc(O)c2)cc1Cl)C(=O)O)Nc1ccccc1 [Example 440] |  | 0.068 | 
60 | C=CCNC(=O)OC[C@H](NC(=O)c1ccc(C(=O)NCc2cccc(O)c2)cc1Cl)C(=O)O [Example 442] |  | 0.006 | 
61 | CCCNC(=O)OC[C@H](NC(=O)c1ccc(C(=O)NCc2cccc(O)c2)cc1Cl)C(=O)O [Example 443] |  | 0.01 | 
62 | CCCNC(=O)OCCC(NC(=O)c1ccc(C(=O)NCc2cccc(O)c2)cc1Cl)C(=O)O (stereo not shown) [Example 444] |  | 0.041 | 
63 | CC(NC(=O)OCCC(NC(=O)c1ccc(C(=O)NCc2cccc(O)c2)cc1Cl)C(=O)O)c1ccccc1 (stereo not shown) [Example 450] |  | 0.061 | 
